# Test results as given in the supplement of paper PMC10338343.
# ± gives the standard deviation. The entries are a selection whose mix differs from that of the whole data set.
# Columns and labels:
# [1] = system: MIWI (PIWIL1) piRISC loaded with L1MC piRNA (30 nt); assay: pre-steady-state target cleavage rate (min^-1); MIWI and MILI are mouse PIWI proteins and EfPiwi is from a freshwater sponge; tags in brackets are library labels; higher = faster piRNA-guided slicing of the target; settings: guide: L1MC piRNA 5'p-UAACUAAAUACUAUGCAAGCUGUAGGUCCU
# Method in brief: (§1)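 Three pooled Cleave-'n-Seq trials supplied the data, with k3 capped at 0.0001 min^-1. In each, […] transcribed, DNA-blocked target RNA library and 1 nM active affinity-purified piRISC with one synthetic guide reacted in HEPES–potassium acetate buffer at 33 °C for 0–8 or 0–960 min, with or without 500 nM GTSF1 partner protein. Uncleaved targets were sequenced and normalised to depth and to weakly complementary targets. A burst-and-steady-state fit provided the pre-steady-state cleavage rate.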
# [2] = system: MIWI (PIWIL1) piRISC loaded with piRNA #1 (30 nt); assay: as above; settings: guide: piRNA #1 5'p-UGAGGUAGUAGGUUGUAUAGUAUCCAGAGG; auxiliary factor: 500 nM mouse GTSF1
# Method in brief: as §1
# [3] = auxiliary factor: 500 nM mouse GTSF1
# [4] = auxiliary factor: none (no GTSF1)
# 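Note: 1 nM active piRISC with 0.1 nM target library at 33 °C single turnover.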
sequence,measurement,setting,value
UGGACGAUCAGCUUGCAUAGUAUUUUCAAA,pre-steady-state target cleavage rate,[1]; [3],0.337 ± 0.038
same,pre-steady-state target cleavage rate,[1]; [4],0.00684 ± 0.0023
AGGAGCUACAGGUUGCAUAGUAUUUAGUUA,pre-steady-state target cleavage rate,[1]; [3],1.17 ± 0.075
same,pre-steady-state target cleavage rate,[1]; [4],0.0502 ± 0.0084
UCCUGCUACACCUUGCAUAGUAUUAAGUUA,pre-steady-state target cleavage rate,[1]; [3],0.383 ± 0.066
same,pre-steady-state target cleavage rate,[1]; [4],0.0124 ± 0.0028
UCCACCUACAGCUUCAUAGUAUUUAGUUA,pre-steady-state target cleavage rate,[1]; [3],0.736 ± 0.052
same,pre-steady-state target cleavage rate,[1]; [4],0.00758 ± 0.0015
UGGACCUAGAGCUUGCAUAGUAUUUUGUUA,pre-steady-state target cleavage rate,[1]; [3],0.663 ± 0.061
same,pre-steady-state target cleavage rate,[1]; [4],0.0327 ± 0.0058
UCCUGGAUGAGCUUGCAUUGUAUAUAGUUA,pre-steady-state target cleavage rate,[1]; [3],0.0647 ± 0.0061
same,pre-steady-state target cleavage rate,[1]; [4],0.00744 ± 0.0031
UCCUCCUUCAGCUUGCAUAGUAAUUAGUUA,pre-steady-state target cleavage rate,[1]; [3],0.688 ± 0.038
same,pre-steady-state target cleavage rate,[1]; [4],0.0201 ± 0.005
UCGACCAACAGCUUGCAUAGUAUUUAGAAA,pre-steady-state target cleavage rate,[1]; [3],0.615 ± 0.045
same,pre-steady-state target cleavage rate,[1]; [4],0.0115 ± 0.0038
UCCUGGUACAGCUUGCAUAGUGUUUAGUUA,pre-steady-state target cleavage rate,[1]; [3],0.563 ± 0.067
same,pre-steady-state target cleavage rate,[1]; [4],0.0451 ± 0.0081
UCCACCUACAGCUUGCAUAGUAUUUUGUAA,pre-steady-state target cleavage rate,[1]; [3],0.304 ± 0.051
same,pre-steady-state target cleavage rate,[1]; [4],0.0107 ± 0.0034
UCCUGGAUCAGCUUGGUUAGUAUUUAGUUA,pre-steady-state target cleavage rate,[1]; [3],0.49 ± 0.031
same,pre-steady-state target cleavage rate,[1]; [4],0.00737 ± 0.0031
UCCUGGAUCAGCUUGCACAGUAUUUAGUUA,pre-steady-state target cleavage rate,[1]; [3],0.959 ± 0.035
same,pre-steady-state target cleavage rate,[1]; [4],0.0607 ± 0.013
UCCAGGUACAGCUUGCAUAGUAUUUAGUAA,pre-steady-state target cleavage rate,[1]; [3],0.504 ± 0.036
same,pre-steady-state target cleavage rate,[1]; [4],0.0352 ± 0.0064
UCCUGCUACAGCUUGCAUAGUCUUUAGUUA,pre-steady-state target cleavage rate,[1]; [3],0.279 ± 0.034
same,pre-steady-state target cleavage rate,[1]; [4],0.0195 ± 0.0047
GCUCUGCAUACUAUACAACCUACAACCUCA,pre-steady-state target cleavage rate,[2],1.37 ± 0.12
GGUCUGGAUACUAUUGUACCUACUACCUCA,pre-steady-state target cleavage rate,[2],0.0445 ± 0.0099
GGAGACCAUUGUAUACAACCUACUACCUCA,pre-steady-state target cleavage rate,[2],0.121 ± 0.024
GGUCUCCUUACUAUACAACCUACUACCUCA,pre-steady-state target cleavage rate,[2],1.66 ± 0.095
GGAGACCUAUCUAUACUACGUACUACCUCA,pre-steady-state target cleavage rate,[2],0.00408 ± 0.0024
GGAGAGGAUACUAUACAACCUACUACCUCA [g2:g25:cont:t1A],pre-steady-state target cleavage rate,[2],1.44 ± 0.072
GCUCUGCAUACUAUACAUCCUACUACCUCA,pre-steady-state target cleavage rate,[2],1.52 ± 0.087
GGAGACCUAACUAUACAACCUACUACCUACA,pre-steady-state target cleavage rate,[2],0.983 ± 0.11
GGAGACCAUACUAUACAUCCUACUAGCUCA,pre-steady-state target cleavage rate,[2],0.483 ± 0.039
GGAGACCUUACUAUACAUCCUACUUCCUCA,pre-steady-state target cleavage rate,[2],0.228 ± 0.026
GGAGACCUAUCUAUACAUCGUACUACCUCA,pre-steady-state target cleavage rate,[2],0.004 ± 0.0024
GGACUGGAUCCUAUACAACCUACUACCUCA,pre-steady-state target cleavage rate,[2],1.87 ± 0.19
CCUCUCGAUACUAUACAACCAACUACCUCA,pre-steady-state target cleavage rate,[2],0.166 ± 0.02
GCACUGGAUUCUAUACAACCUACUACCUCA,pre-steady-state target cleavage rate,[2],1.85 ± 0.096
GGAGACCUUACUAUACCACCUACUACCUCA,pre-steady-state target cleavage rate,[2],0.971 ± 0.072
GGAGUGGAUACAAUACUACCUACUACCUCA,pre-steady-state target cleavage rate,[2],0.86 ± 0.066
GGACUGGAUACUAUACAACCUACUCACCUCA,pre-steady-state target cleavage rate,[2],0.628 ± 0.077
GGAGACCUUACUAUACAACCUCCUACCUCA,pre-steady-state target cleavage rate,[2],0.794 ± 0.041
GGAGUGGAUACUAUACAACCUAACUACCUCA,pre-steady-state target cleavage rate,[2],0.0225 ± 0.004
GGACUGGAUACUAUACAACCUACUAUCCUCA,pre-steady-state target cleavage rate,[2],0.442 ± 0.043
GGAGACCUAUCUAUACAACCUACUACGACA,pre-steady-state target cleavage rate,[2],0.206 ± 0.026
GGAGACCUAACUAUCAACCUACUACCUCA,pre-steady-state target cleavage rate,[2],0.0875 ± 0.012
GGAGACCUAUCUUAUCAACCUACUACCUCA,pre-steady-state target cleavage rate,[2],0.00585 ± 0.003
GGAGACGAUACUAUACAACCAACUACCUCA,pre-steady-state target cleavage rate,[2],0.175 ± 0.017
GGAGACCUUACUAUACUACCUACUAGCUCA,pre-steady-state target cleavage rate,[2],0.197 ± 0.028
CCUCUGGAUACUAUACAACCUACUACGUGA,pre-steady-state target cleavage rate,[2],1.06 ± 0.13
GGAGACCUAACUAUACAACCUAGUACGUCA,pre-steady-state target cleavage rate,[2],0.206 ± 0.056
GGACUGGAUACUAUACAACCUACUACCCA,pre-steady-state target cleavage rate,[2],0.107 ± 0.025
GGAGACCAUAGUAUAGAACCUACUACCUCA,pre-steady-state target cleavage rate,[2],0.506 ± 0.057
GGAGACCUAUCUAACAACCUACUACCUCA,pre-steady-state target cleavage rate,[2],0.00858 ± 0.0041
GGAGACCUAUGAUAUGAACGUACUACCUCA,pre-steady-state target cleavage rate,[2],< 0.0001
